The full ranking holds about 33,000 sequences; the median of “E-score (-0.5 to 0.5)” is about -0.016, and the highest 2% start at about 0.31. The list shows a part of the results.
These sequences were tested against Cst6 (UniProt P40535) (assay: PBM E-score (8-mer binding enrichment) (E-score (-0.5 to 0.5)); higher = stronger / more preferred TF binding; most listed sequences are background and not binding sites). Details: protein concentration: 200 nM; construct: GST-DNA-binding domain.
Procedure: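 Universal 'all 10-mer' protein binding microarrays (Agilent AMADID 015681) probed with GST-tagged S. cerevisiae TFs (full-length or DBD) made by in vitro transcription/translation (PURExpress), about 100-200 nM. Bound TF was detected with fluorescent anti-GST. Each ungapped 8-mer (which stands for itself and its reverse complement) is scored by the PBM enrichment score (E-score), a modified Wilcoxon-Mann-Whitney statistic from -0.5 to +0.5, computed with the Universal PBM Analysis Suite. Scale: above 0.35 generally sequence-specific binding.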

Row | Sequence | PBM E-score
1 | ACAGTGCC | 0.0277
2 | TCCTCGAA | 0.0889
3 | GAAAATTC | 0.146
4 | CGTAAGGC | 0.201
5 | GAACCGCC | -0.092
6 | TCCCCGGA | -0.201
7 | CTAGTTTC | -0.0421
8 | CGTTCGCC | -0.00224
9 | CAGGGGAA | -0.307
10 | AATTTTTC | 0.163
11 | CGCACTCC | -0.223
12 | ACCCGAAT | -0.0327
13 | CTGATAAC | 0.0135
14 | ATCTAAAA | 0.136
15 | AACGGACA | 0.035
16 | CCTAATGC | -0.0866
17 | ACGGAGCC | -0.171
18 | AGGCGTAC | 0.0302
19 | ACTGACTG | -0.0444
20 | TAATACTA | 0.245
21 | ATAGGAGG | -0.217
22 | TGGAATAA | 0.0238
23 | AGTGAGAA | 0.149
24 | GCTCGCTA | -0.132
25 | AGTACCAT | -0.116

Row | Sequence | PBM E-score
26 | AATTCACT | 0.129
27 | AGCGCGCG | 0.103
28 | AAACCTCG | -0.136
29 | ACAGTCCT | -0.131
30 | ATCCTCAC | 0.115
31 | ATTGAAGA | 0.169
32 | ATTATGCC | 0.119
33 | CAGACATG | -0.00706
34 | AGCTACCC | -0.168
35 | CGACCGTC | -0.0866
36 | ACAACCGA | 0.0196
37 | CGGTCGCC | -0.183
38 | CTACACCC | -0.306
39 | GCGGCCAC | -0.0514
40 | TCGCACCA | -0.0988
41 | GAGATTAC | 0.312
42 | CGCACGGA | 0.154
43 | CCCTCGCG | -0.016
44 | TAGTGCGA | -0.146
45 | TAGCTTGA | -0.0745
46 | GACGAAGA | 0.194
47 | ATAATTGA | 0.201
48 | CGTGTAAC | 0.0377
49 | ATCCCTCC | -0.218
50 | CGGTATCC | -0.274

Row | Sequence | PBM E-score
51 | TTACCCAA | -0.0649
52 | ACCACACT | -0.0231
53 | CTGAGGGC | -0.277
54 | ATAAATAT | 0.221
55 | GTCAACGA | 0.124
56 | CGACCTGC | -0.0991
57 | CAGTGTGA | 0.158
58 | CGATGTGC | 0.0378
59 | AGTATCCA | -0.123
60 | ATCAAGAA | 0.251
61 | AAGATGAA | -0.0562
62 | ACCCCTAT | -0.00582
63 | ATGCCTAG | -0.154
64 | CAACCTCC | -0.3
65 | TAACGCCA | 0.0789
66 | TGATTACA | 0.305
67 | AGCTACTG | -0.015
68 | AACGAGCT | -0.043
69 | AAACCTTC | -0.165
70 | AGTGGAAG | -0.323
71 | ATGAACTG | 0.12
72 | CCCGACTC | -0.183
73 | GATTGTTA | 0.175
74 | CCAGTAGC | -0.116
75 | CCTCAGCG | -0.115

Row | Sequence | PBM E-score
76 | TAACTACA | 0.0421
77 | CAAAACAC | 0.0806
78 | CACCCTCC | -0.236
79 | CGATCCGA | -0.0643
80 | CTGCGCAA | -0.0541
81 | CTGTATGA | 0.1
82 | ACGTAGAG | -0.01
83 | ACCATTCT | -0.192
84 | CACCCTGA | -0.151
85 | GACAGGAA | 0.00052
86 | GATGGCCA | -0.0625
87 | ACTCCCAC | -0.238
88 | GTGCGTTA | 0.0965
89 | TGATACAA | 0.141
90 | AGATTTGC | 0.147
91 | ATCCATTA | 0.107
92 | CGCATCCG | -0.0682
93 | AACGCATG | 0.0389
94 | ATACATCG | 0.0993
95 | ACGACTAG | -0.0416
96 | ACGGGGCG | 0.105
97 | CACGACGC | -0.0944
98 | CATGGCGC | 0.0147
99 | CGCCCGCC | -0.129
100 | AAACTCCA | -0.00312

Row | Sequence | PBM E-score
101 | ATACAATC | 0.09
102 | AGTGCAGA | -0.0627
103 | AACAAGTT | 0.0438
104 | ACTCCTCA | -0.122
105 | AGGTCGTA | -0.0992
106 | AAAACCGC | -0.0283
107 | AGTACAGC | -0.21
108 | AGAGAATG | 0.124
109 | AATAAAGT | 0.147
110 | TCTATCAA | 0.0834
111 | GCTATGCC | -0.0323
112 | CCCTGCTA | -0.239
113 | AGTCATGG | -0.00571
114 | ACTACCAG | -0.196
115 | CGTGTGGC | 0.0291
116 | CTCACACC | -0.167
117 | CATTGGTA | -0.00631
118 | ATGTCCTC | -0.113
119 | GCTCTTGA | -0.114
120 | CGCCTATC | 0.0853
121 | ATCGCCAA | -0.0793
122 | ACCATGCG | -0.0952
123 | GGGTCGCA | -0.144
124 | TATGGCCA | -0.157
125 | AGTCGACA | 0.0494

Row | Sequence | PBM E-score
126 | CTTAACTC | 0.0318
127 | CCTCGAAA | 0.0797
128 | AAGGAGTA | -0.163
129 | ATCGTCTA | 0.0351
130 | CGACGTGC | -0.0698
131 | CGAACTTA | 0.0168
132 | AATTGTCG | 0.0471
133 | ACCAGCAC | -0.0814
134 | CCAAGCCG | -0.182
135 | GGCGATGA | 0.186
136 | AGCCCGAG | -0.234
137 | AGAGCTCT | -0.384
138 | CGGCCAGC | -0.043
139 | GAGTGCCC | -0.269
140 | GGTTCACA | -0.0892
141 | TAAGTTGA | 0.143
142 | GGCATACA | -0.102
143 | CCCAGAGC | -0.254
144 | ACAGTCAC | -0.0122
145 | ACTTCCCT | -0.025
146 | CAGGCGTA | -0.0173
147 | TAAGCGCA | -0.252
148 | ACCAATGG | -0.218
149 | CACCCACC | -0.0444
150 | CCCCAGAA | -0.203

Row | Sequence | PBM E-score
151 | AAGGTATA | -0.035
152 | ATCCGCGA | 0.105
153 | CAGCTCCG | -0.0095
154 | CTCTAACC | -0.234
155 | AACTATAA | 0.157
156 | TAAGCCTA | 0.0787
157 | CTTCTAAC | -0.0385
158 | GACATGAA | 0.116
159 | CGCTTTCA | -0.0319
160 | CGCGCACG | 0.155
161 | CTACAAGA | -0.0692
162 | CGTCTGTC | 0.0367
163 | AATACTCG | 0.0658
164 | CGACGCAC | 0.149
165 | GATGGACC | 0.00105
166 | AGCCTATG | -0.0766
167 | GTTCTCAA | 0.147
168 | ACTACAAG | 0.0806
169 | ACTTCGCG | 0.0109
170 | CGTAGCAG | -0.0605
171 | GGACTTCA | -0.272
172 | ACTTGGCA | -0.15
173 | ATTTATGG | 0.148
174 | GGAACAGA | -0.0113
175 | CTGCCTAA | -0.00889

Row | Sequence | PBM E-score
176 | CTCAGGTC | -0.148
177 | GCCACCAC | -0.0797
178 | CTCAACCC | -0.181
179 | CACTTGCC | -0.126
180 | CATGACCC | -0.0425
181 | CGTTTTCC | 0.0612
182 | AAGCGTGC | 0.0722
183 | TCTTTGCA | 0.0306
184 | CATGTAGC | -0.12
185 | CCGCAGAA | 0.0771
186 | ATGACCCG | -0.143
187 | GCATACGA | 0.025
188 | ATCTTGAG | -0.0942
189 | GGGACGAA | -0.214
190 | CAGGGCGA | -0.00562
191 | GGAGATAC | -0.187
192 | CGTGACAA | 0.108
193 | CTTCCCGA | -0.0284
194 | AACGCATT | 0.1
195 | ACTGACCG | -0.0973
196 | CATCTTGA | -0.0929
197 | GGATGGTA | -0.0175
198 | GGACATTA | 0.0079
199 | ACGTAACC | 0.414
200 | CAATGATG | 0.391

Row | Sequence | PBM E-score
201 | CCCGGTGA | 0.00785
202 | AGTCATCA | 0.0814
203 | ATCGACTC | -0.0297
204 | CGTCGCAG | -0.0455
205 | AGCCCAAC | -0.0976
206 | CGTTACGA | 0.182
207 | GGTTCTGA | 0.0473
208 | GCATGCGA | 0.174
209 | GCCGTGAC | 0.341
210 | TGATAAAA | 0.302
211 | GATTTCAA | -0.0222
212 | ATAGGACG | -0.0146
213 | GGCTACCA | -0.158
214 | AGCCACCT | -0.179
215 | ATGATTAG | 0.158
216 | AATCAAGA | 0.112
217 | TAAAAGTA | 0.15
218 | ATGGCCCA | -0.0308
219 | CCCCTCCC | -0.227

— the supplement of paper PMC3334620
